# Data published in PubChem BioAssay AID686978 (National Center for Advancing Translational Sciences (NCATS), 2013).
# Several values for one entry are separate records, joined by “and”; a condition that tells them apart may be missing. Equal values may be shown once. The whole screen tested about 420,000 compounds, of which about 64,000 (15%) were called active. Inconclusive results, whose numbers are uncertain, are shown with a selection of clear calls. Calls follow the shape of the dose curve; as a rule, active = well fitted inhibition curve with a large enough effect; inconclusive = small, poorly fitted or top-dose-only effect; inactive = flat fitted curve, though single readings scatter. Potencies of inconclusive entries are doubtful fits and often do not repeat.
# Assay: qHTS for Inhibitors of human tyrosyl-DNA phosphodiesterase 1 (TDP1): qHTS in cells in absence of CPT; also: nearly all actives have a fitted effect of over 55% in size
# Details: DT40 Tdp1-/- hTDP1 cells, no CPT, ATP luminescence, 48 h; activity change, negative = growth inhibition: at 46.2 µM (top of the series) unless noted
# How it was run: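 Growth of hTDP1-complemented DT40 Tdp1-knockout cells is measured by ATP luminescence after at least 48 hr compound exposure at 37 °C, with DMSO substituting for the 20 nM CPT used in the parallel screen.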
# % is scaled to controls: 0 for no effect and ±100 for the full control effect; potency is read from the fitted curve at half-maximal effect; tags tell the direction and shape of the fitted curve.
SMILES,Potency,"activity change, negative = growth inhibition"
Cc1ccn2c(c1)nc(=S)n2C(=O)c1ccccc1,"inconclusive: 14.6 µM [inhibitor, partial curve]",
O=C(NCc1ccccc1OC(F)(F)F)C1CCC(=O)N(CCc2ccccn2)C1 (configuration not stated),,inactive: 6.11%
Nc1ccnn1Cc1cccnc1,,inactive: 4.04%
CCC(CC)=C(C#N)C(=O)NC1CCCCC1,,inactive: -23.7%
Cc1ncc(CO)c(/C=N/NC(=S)Nc2cccc(Cl)c2)c1O,active: 16.4 µM,
CCCCC(=O)OC1=C(C(=O)c2ccccc2)N(CC)S(=O)(=O)c2ccccc21,active: 7.31 µM,
CSc1ccc(CNC(=O)c2cc3cc(S(=O)(=O)N4CCCCC4)ccc3n2C)cc1,"inconclusive: 7.31 µM [inhibitor, partial curve]",
COc1ccc(C(C)=O)cc1CN1C(=O)C(C)N(c2ccc(C)cc2)C1=O (configuration not stated),"inconclusive: 20.6 µM [inhibitor, single point]",
COc1ccc(-c2nn(-c3ccccc3)cc2C(=O)N(C)CC(=O)Nc2ccccc2Br)cc1,"inconclusive: 29.1 µM [inhibitor, single point]",
Cc1c(NS(=O)(=O)c2cc(C(=O)N3CCCC(C)C3)ccc2Cl)c(=O)n(-c2ccccc2)n1C (configuration not stated),,inactive: -0.232%
COc1cccc(CNC(=O)C2CCN(S(=O)(=O)N3CCC(C)CC3)CC2)c1,"inactive and inconclusive: 29.1 µM [inhibitor, single point]",
O=C(/C=C/c1ccccc1Cl)N(c1ccccn1)C1CCCCC1,active: 16.4 µM,
COc1cc(/C=N/Nc2ccccc2)ccc1O,,inactive: -2.31%
CC1(C(=O)Nc2cnc3ccccc3c2)CCN1CCc1ccccc1 (configuration not stated),active: 18.4 µM,
O=C(Oc1oc(-c2ccco2)nc1C=Nc1ccccc1)c1ccoc1,active: 11.6 µM,
Cc1nn(CC(=O)Nc2ccc3c(c2)nc(CCN2CCCCC2)n3C)c(=O)c2ccccc12,"inconclusive: 35.5 µM [inhibitor, single point]",
COCCN1C[C@@H](CO)O[C@@H](n2cnc3c(N4CCN(C)CC4)ncnc32)C1,,inactive: 18.2%
CCOC(=O)c1c(N)sc2c1CCCC2=O,,inactive: -23.7%
COc1ccc(S(=O)(=O)N2CCN(C)CC2)cc1,,inactive: 12.3%
CC(=O)NC12CC3CC(C1)CC(C(=O)Oc1ccc(N(C)S(=O)(=O)c4cc(C)ccc4C)cc1)(C3)C2,active: 16.4 µM,
CC1(C)Cc2nc3scc(NC(=O)c4ccccc4)c3cc2CO1,"inconclusive: 23.1 µM [inhibitor, single point]",
COC(=O)c1ccc(CSc2nc3c(cnn3-c3ccc(F)cc3)c(=O)[nH]2)o1,"inconclusive: 25.9 µM [inhibitor, single point]",
